# This is one part of the list.
# Assays:
# Test in all cases: glycan array binding signal (z-score within array); higher = stronger binding
# Conditions in all cases: glycan notation: IUPAC condensed, linker removed
# [1] = target: Gal(a1-3)Gal(b1-4)GlcNAc(b1-2)Man
# Summary of the method: (§1)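 Glycan array binding is given as a within-array Z-score, which can be read as non-binding when negative. The arrays, 3228 of them, came from the Consortium for Functional Glycomics database and were retained only where the protein sequence was available. Z-scores were averaged across arrays of the same protein sequence at different concentrations or buffers and across linkers.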
# [2] = target: Gal(a1-3)Gal(b1-4)GlcNAc(b1-2)Man(a1-3)[Gal(a1-3)Gal(b1-4)GlcNAc(b1-2)Man(a1-6)]Man(b1-4)GlcNAc(b1-4)GlcNAc
# Summary of the method: as §1
# [3] = target: Gal(a1-3)Gal(b1-4)GlcNAc(b1-3)GalNAc
# Summary of the method: as §1
# [4] = target: Gal(a1-3)Gal(b1-4)GlcNAc(b1-6)GalNAc
# Summary of the method: as §1
# [5] = target: Gal(a1-3)Gal(b1-4)[Fuc(a1-3)]GlcNAc
# Summary of the method: as §1
# [6] = target: Gal(a1-3)Gal(b1-4)[Fuc(a1-3)]GlcNAc(b1-2)Man(a1-3)[Gal(a1-3)Gal(b1-4)[Fuc(a1-3)]GlcNAc(b1-2)Man(a1-6)]Man(b1-4)GlcNAc(b1-4)GlcNAc
# Summary of the method: as §1
# [7] = target: Gal(a1-3)GalNAc
# Summary of the method: as §1
# [8] = target: Gal(a1-3)[Gal(a1-4)]Gal(b1-4)GlcNAc
# Summary of the method: as §1
# [9] = target: Gal(a1-4)Gal(b1-3)GlcNAc(b1-2)Man(a1-3)[Gal(a1-4)Gal(b1-3)GlcNAc(b1-2)Man(a1-6)]Man(b1-4)GlcNAc(b1-4)GlcNAc
# Summary of the method: as §1
# [10] = target: Gal(a1-4)Gal(b1-4)Glc
# Summary of the method: as §1
# [11] = target: Gal(a1-4)Gal(b1-4)GlcNAc
# Summary of the method: as §1
# [12] = target: Gal(a1-4)Gal(b1-4)GlcNAc(b1-2)Man(a1-3)[Gal(a1-4)Gal(b1-4)GlcNAc(b1-2)Man(a1-6)]Man(b1-4)GlcNAc(b1-4)GlcNAc
# Summary of the method: as §1
# [13] = target: Gal(a1-4)Gal(b1-4)GlcNAc(b1-3)Gal(b1-4)Glc
# Summary of the method: as §1
# [14] = target: Gal(a1-4)GlcNAc
# Summary of the method: as §1
# [15] = target: Gal(a1-6)Glc
# Summary of the method: as §1
# [16] = target: Gal(b1-2)Gal
# Summary of the method: as §1
# [17] = target: Gal(b1-3)Gal
# Summary of the method: as §1
# [18] = target: Gal(b1-3)Gal(b1-4)GlcNAc
# Summary of the method: as §1
# [19] = target: Gal(b1-3)GalNAc
# Summary of the method: as §1
# [20] = target: Gal(b1-3)GalNAc(a1-3)[Fuc(a1-2)]Gal(b1-4)Glc
# Summary of the method: as §1
# [21] = target: Gal(b1-3)GalNAc(a1-3)[Fuc(a1-2)]Gal(b1-4)GlcNAc
# Summary of the method: as §1
# [22] = target: Gal(b1-3)GalNAc(b1-3)Gal
# Summary of the method: as §1
binder,measurement,setting,value
"Langerin K313I (Homo sapiens), Q9UJ71 (protein) STLNAQIPELKSDLEKASALNTKIRALQGSLENMSKLLKRQNDILQVVSQGWKYFKGNFYYFSLIPKTWYSAEQFCVSRNSHLTSVTSESEQEFLYKTAGGLIYWIGLTKAGMEGDWSWVDDTPFNKVQSARFWIPGEPNNAGNNEHCGNIKAPSLQAWNDAPCDITFLFICKRPYVPSEP",glycan array binding signal (z-score),[1],-0.325
same,glycan array binding signal (z-score),[2],0.158
same,glycan array binding signal (z-score),[3],-0.309
same,glycan array binding signal (z-score),[4],-0.174
same,glycan array binding signal (z-score),[5],-0.326
same,glycan array binding signal (z-score),[6],0.073
same,glycan array binding signal (z-score),[7],-0.251
same,glycan array binding signal (z-score),[8],-0.37
same,glycan array binding signal (z-score),[9],-0.148
same,glycan array binding signal (z-score),[10],-0.008
same,glycan array binding signal (z-score),[11],-0.338
same,glycan array binding signal (z-score),[12],0.017
same,glycan array binding signal (z-score),[13],-0.285
same,glycan array binding signal (z-score),[14],-0.305
same,glycan array binding signal (z-score),[15],-0.125
same,glycan array binding signal (z-score),[16],-0.154
same,glycan array binding signal (z-score),[17],-0.232
same,glycan array binding signal (z-score),[18],-0.258
same,glycan array binding signal (z-score),[19],-0.319
same,glycan array binding signal (z-score),[20],-0.258
same,glycan array binding signal (z-score),[21],-0.314
same,glycan array binding signal (z-score),[22],-0.193

# Source: the supplement of paper PMC8728848
